Test results as given in PMC4336329 (PLoS ONE, 2015).
Among all 310,000 compounds or so, about 2,200 (0.71%) showed an effect of 50% or more. Effects have a minus sign here. This is one part of the list.

target: human ether-à-go-go-related gene (hERG) potassium channel (human, UniProt Q12809); experiment: primary screen, population patch clamp on CHO cells stably expressing hERG
Sequence (Q12809 whole entry, looked up): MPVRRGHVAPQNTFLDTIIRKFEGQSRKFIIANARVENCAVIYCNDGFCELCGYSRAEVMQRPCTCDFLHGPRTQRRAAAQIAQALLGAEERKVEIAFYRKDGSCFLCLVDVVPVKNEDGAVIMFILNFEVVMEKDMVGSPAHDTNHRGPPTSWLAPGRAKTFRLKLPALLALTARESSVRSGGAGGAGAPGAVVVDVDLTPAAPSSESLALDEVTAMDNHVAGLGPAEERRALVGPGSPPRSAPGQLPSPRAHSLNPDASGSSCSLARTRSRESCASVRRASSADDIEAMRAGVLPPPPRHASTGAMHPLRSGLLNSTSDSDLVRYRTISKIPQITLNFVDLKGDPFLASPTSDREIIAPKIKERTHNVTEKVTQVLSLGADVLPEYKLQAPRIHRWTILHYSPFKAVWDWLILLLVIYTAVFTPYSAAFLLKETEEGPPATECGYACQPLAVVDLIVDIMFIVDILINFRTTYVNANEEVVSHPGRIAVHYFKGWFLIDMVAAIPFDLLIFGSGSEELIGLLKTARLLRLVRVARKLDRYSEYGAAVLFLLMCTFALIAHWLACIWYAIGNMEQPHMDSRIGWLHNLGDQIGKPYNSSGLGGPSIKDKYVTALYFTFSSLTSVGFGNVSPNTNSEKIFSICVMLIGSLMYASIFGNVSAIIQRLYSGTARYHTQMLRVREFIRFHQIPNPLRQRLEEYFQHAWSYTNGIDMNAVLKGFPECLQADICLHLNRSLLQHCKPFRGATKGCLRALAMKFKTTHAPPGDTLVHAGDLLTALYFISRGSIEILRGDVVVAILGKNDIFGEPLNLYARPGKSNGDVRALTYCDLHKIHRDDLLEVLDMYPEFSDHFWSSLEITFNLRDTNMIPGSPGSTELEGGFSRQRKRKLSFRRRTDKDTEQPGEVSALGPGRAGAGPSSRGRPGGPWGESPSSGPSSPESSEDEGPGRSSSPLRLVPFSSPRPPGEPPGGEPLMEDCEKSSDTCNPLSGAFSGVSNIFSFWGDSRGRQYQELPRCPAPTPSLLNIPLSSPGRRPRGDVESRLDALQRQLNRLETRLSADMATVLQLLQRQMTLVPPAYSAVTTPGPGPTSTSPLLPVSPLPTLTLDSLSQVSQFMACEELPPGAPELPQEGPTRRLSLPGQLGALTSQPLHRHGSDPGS

| SMILES | hERG current change (%, negative = inhibition) at 1uM [%] |
| --- | --- |
| CCOC(=O)c1c(Nc2nc(C)c(C(=O)NC)s2)sc(C)c1C | -17.2 |
| Clc1ccc2[nH]c(-c3ccccc3)cc2c1 | 8.04 |
| CCOC(=O)C1=C(C)NC(=O)NC1c1ccc(OC(C)C(=O)O)c(OC)c1 (centres unmarked) | 6.22 |
| O=C(Cn1c(=O)sc2ccccc21)Nc1ccccc1C(=O)O | 8.3 |
| C=CCn1c(N)c(C(=O)Nc2ccc(C)cc2)sc1=S | 13.4 |
| CC(C)[C@H](NC(=O)OC(C)(C)C)c1nnc(S(=O)(=O)Cc2c(F)cccc2Cl)o1 | -1.55 |
| Cc1cc(=O)n2c3ccccc3n(CC(O)CN3CCN(Cc4ccccc4)CC3)c2c1C#N (centres unmarked) | -31 |
| O=C1C=C(c2ccc3c(c2)oc2ccccc23)C[C@@H](c2ccc(Cl)cc2)C1 | 16 |
| CCOC(=O)N1CCN(CC(=O)Nc2ccc(F)c(F)c2)CC1 | 8.59 |
| CCn1nc(NC(=O)c2ccncc2)c2cc3ccccc3nc21 | 8.34 |
| CN1CCN(c2ccccc2NC(=O)c2ccc(-c3ccc(Cl)c(Cl)c3)o2)CC1 | 7.83 |
| COc1ccccc1CNCc1cc(OC)c(OC)c(OC)c1.O=C(O)C(=O)O | 16.5 |
| O=C(O)Cn1c(O)c(C=Nc2ccccc2)sc1=S [14736554] | 11.2 |
| O=C(COC(=O)Cc1cccc(C(F)(F)F)c1)NCc1ccco1 | 5.82 |
| Cc1ccc(/C=N/NC(=O)c2ccc(N(C)S(=O)(=O)c3ccccc3)cc2)cc1 | -4.69 |
| COc1ccc(C(=O)Nc2cc(OC)c(Cl)cc2OC)cc1 | -8.27 |
| CCCSc1nnc2c(n1)OC(c1cccn1C)N(C(C)=O)c1ccccc1-2 (centres unmarked) | 0.795 |
| CONC(=O)C1CCN(C(=O)OCc2ccccc2)CC1 | 15.8 |
| CCn1c(O)c(/C=C2\C=NN=C2c2ccccc2)sc1=S | 13.8 |
| Cc1csc(N2CCN(c3cc4c(cc3Cl)nc(-c3ccncc3)n4CCCN3CCCC3)CC2)n1 | -16.8 |
| COc1cccc(CN2CCC(n3nccc3NC(=O)CCCc3ccccc3)CC2)c1O | -55.4 |
| Cc1csc(N2CCCC2c2nc3cc(Cl)c(N4CCCCC4)cc3n2CCOCCO)n1 (centres unmarked) | -2.57 |

| SMILES | hERG current change (%, negative = inhibition) at 1uM [%] |
| --- | --- |
| O=c1c2oc3ccccc3c2ncn1Cc1ccccc1Cl | 13.1 |
| CN(C)S(=O)(=O)N1CCN(c2cc(Cl)ccc2Cl)CC1 | 16.5 |
| O=C(Nc1ccccc1C(=O)N1CCOCC1)C1CCCO1 (centres unmarked) | 8.21 |
| CC(=O)c1c(C)[nH]c(C(=O)NCc2ccco2)c1C | -0.592 |
| Cc1ccc(CNC(=O)CCN2C(=O)[C@@H]3Cc4ccccc4CN3C2=O)cc1 | 2.53 |
| CCSc1nnc(-c2ccc(OC)cc2)o1 | 3.96 |
| COc1ccc(C2C(C(=O)N3CC(C)CC(C)C3)c3ccccc3C(=O)N2C)cc1 (centres unmarked) | 10.8 |
| CCOC(=O)C1CCN(C(=O)CCNC(=O)Cn2cnc3ccccc3c2=O)CC1 | 3.22 |
| CC(C)C[C@H](NC(=O)N1CC(=O)Nc2ccccc21)C(=O)N[C@@H](Cc1c[nH]c2ccccc12)C(=O)O | 10.6 |
| Cc1csc2ncc(C(=O)N(Cc3ccccc3)c3ccccn3)c(=O)n12 | 14.1 |
| O=C1CSC(c2cccc(F)c2)N1c1ccc(O)cc1 (centres unmarked) | 14.6 |
| CN(C(=O)c1ccc2c(c1)CCO2)C(C)(C)C | 12.9 |
| CCOP(=O)(OCC)Oc1cc(C)c(N(C)C)c(C)c1 | 5.68 |
| Cc1ccc(S(=O)(=O)N2CCC(C(=O)Nc3ccccc3N3CCCC3)CC2)cc1 | 12.9 |
| CCc1cccc(NC(=O)c2sc3nc4n(c(=O)c3c2C)CCC4)c1 | 1.39 |
| Cc1cc2c(c(=O)n1C1CC1)C(c1cccc(Cl)c1)C(C#N)=C(N)O2 (centres unmarked) | -9.66 |
| COc1ccc(NC(=O)C2CCCN(c3nccc(C)n3)C2)cc1 (centres unmarked) | -0.18 |
| Cc1ccc(-c2nn(C)c(=O)c3ccccc23)cc1CN1CCOCC1 | 11.3 |
| CC1CCCC(NC(=O)NC(=O)COC(=O)c2ccc(O)cc2O)C1C (centres unmarked) | 10.9 |
| O=C(O)C1CCN(C(=O)COc2ccc3c4c(c(=O)oc3c2)CCCC4)CC1 | -5.91 |
| O=Cc1ccc(OC(=O)CCCCC(=O)Oc2ccc(C=O)cc2)cc1 | 19 |
| COc1ccc2c(CCNC(=O)/C=C/c3ccc(OC)c(OC)c3)c[nH]c2c1 | 16.7 |

| SMILES | hERG current change (%, negative = inhibition) at 1uM [%] |
| --- | --- |
| CC1(C)Cc2cccc(C(=O)Nc3ccc(Cl)cc3)c2O1 | 14.5 |
| COc1ccc(-c2noc(CN(C)C(=O)Nc3ccccc3)n2)cc1 | 10.5 |
| COC(=O)c1ccccc1NC(=O)CSc1n[nH]c(-c2ccco2)n1 | 15.9 |
| CCOc1cc(CNCCc2cccc(F)c2)ccc1OC.O=C(O)C(=O)O | -12.7 |
| COc1ccccc1C(=O)NCCc1nc2ccccc2[nH]1 | 13.9 |
| Cc1ccnc2c(N3C(=O)C4C5C=CC(C5)C4(C)C3=O)cccc12 (centres unmarked) | 4.95 |
| COc1cccc(N2CCN(C(=O)c3ccc(CS(=O)Cc4ccc(C)cc4)o3)CC2)c1 (centres unmarked) | 4.41 |
| CC(NC(=O)[C@H](NC(=O)[C@@H]1Cc2ccccc2CN1)c1ccccc1)c1ccccc1 (some centres unmarked) | 2.59 |
| CCOCCCNC(=O)c1cc(Nc2ccc(OC)cc2OC)nc2ccccc12 | -1.43 |
| CC(=O)c1cccc(NC(=O)NC(C)c2ccncc2)c1 (centres unmarked) | 0.278 |
| C=C1CCC[C@]2(C)C[C@H]3OC(=O)C(CNCC(C)C)[C@H]3CC12 (some centres unmarked) | 0.0946 |
| N#Cc1cnc(Nc2nc3ccccc3o2)nc1-c1ccccc1 | 9.81 |
| COc1cccc(CNC(=O)CCC(=O)N2C[C@H]3C[C@H](C2)c2cccc(=O)n2C3)c1OC | 13.4 |
| COc1ccc(NC(=O)c2ccc(-c3ccccc3Cl)o2)cc1 | -0.299 |
| Clc1ccc(-c2nnc3n2-c2ccccc2SC3)cc1 | 8.63 |
| Cc1cc(C)n(-c2ccc(C(=O)Nc3ccc(C)c(S(=O)(=O)N4CCOCC4)c3)cc2)n1 | 10.5 |
| CCOC(=O)c1cnc2nc(NCc3ccc(OC)c(OC)c3)[nH]n2c1=O | 5.88 |
| COc1ccccc1NC(=O)C1=C(C)NC(SCC(=O)Nc2ccc(C(=O)O)cc2)=C(C#N)C1c1cccs1 (centres unmarked) | 16.4 |
| Cc1oc(-c2ccccc2Cl)nc1CN(Cc1ccccn1)C[C@@H]1CCC(=O)N1 | 3.6 |
| Cc1ccc(S(=O)(=O)/N=C(\N)Nc2nc(C)c3cc(C)ccc3n2)cc1 | 0.79 |
| COc1ccc(Oc2c(C(F)(F)F)oc3cc(OCC(=O)O)ccc3c2=O)cc1 | 10.2 |
| CCn1c(N)nc2c1c(=O)n(C)c(=O)n2C | 12.8 |

| SMILES | hERG current change (%, negative = inhibition) at 1uM [%] |
| --- | --- |
| CSc1nsc(SC)c1C(=O)OCC(F)(F)F | 14.4 |
| O=C(O)C1CC=CCC1C(=O)Nc1ccccc1C(=O)N1CCN(c2ccc(Cl)cc2)CC1 (centres unmarked) | 8.6 |
| COc1ccc(NC(=O)C2CC(c3cc(OC)c(OC)c(OC)c3)=NO2)cc1OC (centres unmarked) | -0.629 |
| COc1ccc(CCNC(=O)c2cc(S(=O)(=O)N3CCOCC3)ccc2N2CCCC2)cc1OC | 12.3 |
| O=C(O)c1ccccc1C(=O)NCCc1c(C(=O)O)[nH]c2ccc(F)cc12 | 0.125 |
| CN(Cc1ccccc1)C(=O)COC(=O)CCN1C(=O)C2CC=CCC2C1=O (centres unmarked) | 4.12 |
| Cc1ccc(N(Cc2cc3ccc(C)cc3[nH]c2=O)S(=O)(=O)c2ccccc2)cc1 | 9.61 |
| CCOC(=O)c1cnc(SCc2cccc(C)c2)nc1N | -0.141 |
| O=C(c1ccc(F)cc1F)N1CCC(N2CCC(C(=O)N3CCOCC3)CC2)CC1 | 9.46 |
| CCCOc1ccc(NC(=O)C2OC3OC(C)(C)OC3C3OC(C)(C)OC23)cc1 (centres unmarked) | 15.5 |
| CC1Cc2ccccc2N1C(=O)C1CCCN1S(=O)(=O)c1ccc(Cl)cc1 (centres unmarked) | 12.4 |
| CCOC(=O)C1CCN(C(=O)CNC(=O)c2nn(-c3ccc(OC)c(OC)c3)c(=O)c3ccccc23)CC1 | 11.3 |
| CN(C)c1ccc(C(=O)NCc2ccc3c(c2)CCO3)cc1 | 5.08 |
| CCOc1ccc(-c2c(C(=O)N/N=C/c3ccc(OC)cc3)nnn2-c2nonc2N)cc1 | 8.91 |
| CCOP(=S)(OCC)Oc1cc(C)oc(=O)c1 | 11.8 |
| O=C(NCC1CCCO1)c1ccc2c(c1)C(=O)N(C1CCCCC1)C2=O (centres unmarked) | 2.04 |
| O=C(O)c1ccc(N/N=C/c2ccnc3ccccc23)cc1 | 12.7 |
| O=C(CN1C(=O)NC(Cc2ccccc2)C1=O)Nc1ccc(F)c(Cl)c1 (centres unmarked) | 14.9 |
| CCNC(=O)CN(CCc1ccccc1)S(=O)(=O)c1ccc(OC)cc1 | -2.26 |
| Cc1ccc(NS(=O)(=O)c2c(C)[nH]c(C)c2C(=O)N2CCCCC2)cc1F | 14.9 |
